# Data: PubChem BioAssay AID1346428 (National Center for Advancing Translational Sciences (NCATS), 2018)
# “And” between values parts separate entries of the source, which are not always exact repeats. Equal entries are not always repeated. Among all 48,000 compounds or so, about 1,200 (2.5%) were called active. Not shown: some 2% with an inconclusive outcome.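 How the source made its calls: active means activation of at least 60% and not above a set upper limit (about 1 call in 100 departs from these limits); inconclusive means activation of 40% to 60%, or above that upper limit; inactive means activation under 40%.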 The list shows a part of the results.
# Target: Probable G-protein coupled receptor 32 (Homo sapiens) (UniProt O75388)
# Assay: qHTS for Agonists of Human Resolvin D1 Receptor DRV1; further: 0% is about no effect
# Conditions: CHO-K1 GPR32 beta-arrestin PathHunter luminescence, 90 min; at 76.9 µM; hits give high values; zero percent set by DMSO-only wells
# Summary of the method: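 Luminescent readout of beta-Gal complementation quantifies ligand-induced beta-arrestin association with GPR32 in CHO-K1 cells; 90 min compound incubation at 37 °C, detection 1 h at room temperature.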
# UniProt O75388, sequence (O75388 whole entry, looked up): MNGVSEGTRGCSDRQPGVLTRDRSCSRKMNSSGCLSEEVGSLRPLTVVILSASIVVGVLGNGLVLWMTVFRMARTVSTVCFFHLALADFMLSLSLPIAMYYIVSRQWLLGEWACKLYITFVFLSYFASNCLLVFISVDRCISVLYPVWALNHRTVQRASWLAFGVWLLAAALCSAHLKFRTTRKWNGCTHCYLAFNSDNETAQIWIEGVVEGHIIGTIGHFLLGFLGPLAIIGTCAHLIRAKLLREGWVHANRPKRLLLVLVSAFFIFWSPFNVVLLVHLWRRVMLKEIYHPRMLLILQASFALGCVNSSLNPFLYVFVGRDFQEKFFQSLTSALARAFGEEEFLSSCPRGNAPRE
row,Structure (SMILES),activation
1,CN(C)CCN(Cc1cccs1)c1ccccn1,inactive: 9.46% and inactive: -10%
2,Cc1ccc(OCC(=O)NCC2(N3CCN(C)CC3)CCCCC2)cc1,inactive: -6.14%
3,COc1ccc(Nc2ncc(C(=O)Nc3cccc(Cl)c3)c3ccccc23)cc1,inactive: -53.5%
4,CCc1ccc(NC(=O)C(=O)NCC(c2ccc3c(c2)OCO3)N2CCN(C)CC2)cc1 (centres undefined),inactive: 5.32%
5,COc1ccc(-n2nc3c(N4CCC(C(=O)N5CCC(C)CC5)CC4)nnc(C)c3c2C)cc1,inactive: -4.77%
6,COc1ccc(CNC(=O)c2ccc(Cn3c(=O)c4cccn4c4cccnc43)cc2)c(OC)c1,inactive: -8.76%
7,Cc1ccc(O)c(NC(=O)c2cc(-c3ccc(F)cc3)no2)c1,inactive: -10.1%
8,CC(C)CCNC(=O)c1cnc2sc(N3CCCCCC3)nn2c1=O,inactive: -9.92%
9,COc1ccc(NC(=O)[C@H](Cc2ccccc2)N2Cc3ccccc3C2=O)cc1OC,inactive: -2.42%
10,Cc1ccc(-n2ncc(C(=O)NCCN3CCN(C)CC3)c2C2CCN(C(=O)OC(C)(C)C)CC2)cc1C,inactive: -4.58%
11,COc1cccc(NC(=O)Cn2c(=O)n(Cc3ccc4c(c3)OCO4)c(=O)c3oc4ccccc4c32)c1,inactive: -26.8%
12,CCOc1ccc(CNC(=O)Cn2c(=O)c3cccn3c3cccnc32)cc1,inactive: -7.28%
13,COc1ccc2c(c1)c(N1CCCC1=O)c(C(=O)Nc1ccc(OC)c(Cl)c1)n2C,inactive: 3.27%
14,CC(=O)c1cccc(NS(=O)(=O)c2c(C(=O)N3CCCCCC3)c(C)n(C)c2C)c1,inactive: -7.96%
15,Cc1nn(-c2ccccc2)c2c1N(CC(=O)N1CCN(c3ccc(Cl)cc3)CC1)C(=O)CS2,inactive: 2.49%
16,Cc1nn(-c2ccccc2)c2c1N(CCCC(=O)NC(C)c1ccccc1)C(=O)CS2 (centres undefined),inactive: -1.75%
17,CCc1ccc(NC(=O)c2cc(S(=O)(=O)NC3CCCCCC3)ccc2F)cc1,inactive: -16.7%
18,COc1cc(NC(=O)c2noc3c2CC(C)CC3)c(OC)cc1Cl (centres undefined),inactive: -10.5%
19,Cc1ccc(S(=O)(=O)c2cn(Cc3ccccc3)c3cc(N4CCOCC4)c(F)cc3c2=O)cc1,inactive: -6.98%
20,CCc1ccc(CNC(=O)CCn2nc(C)c3c(C)n(-c4ccccc4)nc3c2=O)cc1,inactive: -7.02%
21,Cc1nn(CCCC(=O)Nc2ccccc2C(F)(F)F)c(=O)c2nn(-c3ccccc3)c(C)c12,inactive: 2.28%

row,Structure (SMILES),activation
1,COc1ccc(-n2c(SCCC(C)C)nc3sc4c(c3c2=O)CC(C(C)C)OC4)cc1 (centres undefined),inactive: -3.1%
2,CC1CCC(NC(=O)c2ccc(CSc3nc4ccncc4n3Cc3ccc(F)cc3)cc2)CC1 (centres undefined),inactive: 4.96%
3,COc1ccc(C(CC(=O)Nc2ncccc2C)N2Cc3ccccc3C2=O)cc1OC (centres undefined),inactive: 3.96%
4,O=C(Nc1ccccc1)c1cccc(N2CCCS2(=O)=O)c1,inactive: 31.6%
5,Cc1cc(C)n2nc(CNC(=O)c3ccc(Cl)cc3)nc2n1,inactive: 5.47%
6,Cc1nn2c(-c3ccccc3)cc(-c3ccccc3)nc2c1-c1ccc(Cl)cc1,inactive: 5.37%
7,O=C(Nc1cc(Cl)cc(Cl)c1)c1cc(S(=O)(=O)NC2CCCC2)ccc1F,inactive: -7.96%
8,Cc1c(Cl)cccc1NC(=O)CCS(=O)(=O)c1ccc2c(c1)CC(C)N2C(=O)C1CC1 (centres undefined),inactive: -8.52%
9,COc1ccc(CN(C)c2ccc(-c3nc(-c4ccc(OC)c(OC)c4)no3)cc2[N+](=O)[O-])cc1,inactive: -13%
10,CCOc1ccc2nc(Cl)c(C3CC(c4ccc(C)cc4)=NN3C(=O)CCC(=O)O)cc2c1 (centres undefined),inactive: 2.95%
11,Cc1cccc(N2CCN(C(=O)C3CCN(C(=O)c4cc5sccc5n4C)CC3)CC2C)c1 (centres undefined),inactive: 37.5%
12,CCOc1ccccc1CNCc1c(C(=O)O)c(C)n(Cc2ccc(C)cc2)c1C,inactive: 7.41%
13,CN1CCc2nc3sc(C(=O)c4ccc(F)cc4)c(N)c3cc2C1,inactive: -31%
14,COc1cccc(-c2nnc(SCC(=O)N(C)C3CCCCC3)o2)c1,active: 71.7%
15,CCC(C)S(=O)(=O)c1oc(-c2cccs2)nc1S(=O)(=O)c1ccccc1 (centres undefined),inactive: -14.2%
16,COc1cn(CC(=O)Nc2cc(C)cc(C)c2)c(CN2CCCCC2)cc1=O,inactive: -14.3%
17,CCOc1ccc(CCNC(=O)Cn2c(-c3cccs3)cc3ccccc32)cc1,inactive: -15%
18,CN1C(=O)c2cccc3c(S(=O)(=O)Nc4cccc(C(=O)O)c4)ccc1c23,inactive: -18.1%
19,CCOc1ccc(NC(=O)CN(Cc2ccccc2)S(=O)(=O)c2ccc3nc(C)sc3c2)cc1,inactive: -21.4%
20,Cc1ccc2c(c1)c1c(c(=O)n(Cc3ccccc3)c(=O)n1Cc1ccccc1F)n2C,inactive: -6.65%
21,CN(c1ccc(F)cc1)S(=O)(=O)N1CCCC(C(=O)NCc2ccccc2Cl)C1 (centres undefined),inactive: -6.7%

row,Structure (SMILES),activation
1,CCN(CC)S(=O)(=O)c1ccc(OC)c(NC(=O)c2sc3ccccc3c2Cl)c1,inactive: 1.45%
2,CCOc1ccc(N2CC(NC(=O)c3ccc(Cl)cc3)CC2=O)cc1 (centres undefined),inactive: -1.62%
3,Cc1cccc(NC(=O)c2oc3ccccc3c2NC(=O)c2cc(=O)c3ccccc3o2)c1,inactive: 0.567%
4,CCOC(=O)N1CCc2c(sc3c2c(=O)n(Cc2ccccc2)c(=O)n3CC(=O)Nc2ccc(F)cc2)C1,inactive: -16.5%
5,CNC(=O)CN1C(=O)COc2ccc(S(=O)(=O)N3CCCCCC3)cc21,inactive: -1.5%
6,NC(CO)(CO)CO,inactive: 3.91%
7,O=C(C1CCC1)N1CCCc2cc(S(=O)(=O)N3CCN(c4cccc(Cl)c4)CC3)ccc21,inactive: -23.8%
8,CCOc1ccc(-n2ccnc2SCC(=O)Nc2cc(C)ccc2C)cc1,inactive: -1.49%
9,COc1cccc(-n2c(SCc3cccc(C)c3)nc3c([nH]c4ccccc43)c2=O)c1,inactive: -43.4%
10,CCOCc1cc(CN2CCN(c3cccc(C(F)(F)F)c3)CC2)c(O)c2ncccc12,inactive: 21.8%
11,Cc1ccc(C)c(NC(=O)C(=O)NCCCN2CCOCC2)c1,inactive: -2.96%
12,Cc1onc(-c2ccccc2Cl)c1C(=O)Oc1ccc(Cl)cc1Cl,inactive: -1.84%
13,CCOc1ccccc1NC(=O)COC(=O)CC(C)(C)CC1=NS(=O)(=O)c2ccccc2N1,active: 83.4%
14,O=C(NCCCN1CCN(c2ccccc2)CC1)c1sc2ncccc2c1-n1cccc1,inactive: -5.39%
15,CCOc1ccc(CCNC(=O)c2cnc3c(-c4ccc(F)cc4)c(C)nn3c2C)cc1,inactive: -4.97%
16,COc1cc(S(=O)(=O)NCCc2c(C)[nH]c3ccc(C)cc23)ccc1Br,inactive: -4.92%
17,Nc1ncc(S(=O)(=O)NCc2ccccc2)cn1,inactive: -4.69%
18,COc1ccc(N(C(=O)c2ccccc2C)S(=O)(=O)c2ccc(Cl)cc2)cc1,inactive: -21.4%
19,O=C(NCCc1nc2ccccc2n1Cc1ccccc1F)c1ccc(F)cc1,inactive: -9.27%
20,CN1C(C(=O)Nc2cccc(O)c2)=CC(c2cccs2)=NS1(=O)=O,inactive: 1.78%
21,COc1ccc(C(=O)c2cn(Cc3ccccc3)c3ccccc3c2=O)cc1OC,inactive: -16.2%

row,Structure (SMILES),activation
1,Cc1ccc(CNC(=O)c2ccc3c(c2)CCN3S(=O)(=O)c2ccc(Br)cc2)cc1,inactive: -4.01%
2,COc1ccc(C2CC(=O)c3cc(-c4nc(-c5cccc([N+](=O)[O-])c5)cs4)c(=O)n(-c4ccccc4N)c3C2)cc1 (centres undefined),inactive: 3.05%
3,COC(=O)c1ccc(NC(=O)Cn2c(=O)oc3ccccc32)cc1,inactive: -7.05%
4,Cc1nc2ccn(Cc3ccco3)c(=O)c2cc1C(=O)NCc1ccc(Cl)cc1,inactive: -17%
5,NC(=O)c1cc(S(=O)(=O)NCc2cccc(Br)c2)cs1,inactive: 10.2%
6,CCN(c1ccc(OC)cc1)S(=O)(=O)c1ccc2[nH]c3c(c2c1)CCCCC3,inactive: 11.4%
7,COc1ccc(N2CC(NC(=O)C3CCCCC3)CC2=O)cc1 (centres undefined),inactive: -1.81%
8,CCn1c(SCC(=O)Nc2cc(C)ccc2F)nnc1-c1ccccc1O,active: 82.1%
9,Clc1ccc(C(Cn2ccnc2)OCc2c(Cl)cccc2Cl)c(Cl)c1 (centres undefined),inactive: -107%
10,COc1ccc(CC(=O)N2CC(=O)Nc3ccc(F)cc3C2c2ccccc2)cc1 (centres undefined),inactive: -10.2%
11,CCOC(=O)CNC(=O)N1CCN(S(=O)(=O)c2ccc3c(ccn3C)c2)CC1,inactive: -5.52%
12,CCCOc1ccc(C2c3c(oc4ccccc4c3=O)C(=O)N2c2nnc(C(C)C)s2)cc1 (centres undefined),inactive: 3.12%
13,CC(=O)c1ccc(NC(=O)C2CCN(S(=O)(=O)c3ccc4[nH]c5c(c4c3)CCCCC5)CC2)cc1,inactive: -5.23%
14,Cc1ccccc1CNC(=O)Cn1c(=O)c2cccn2c2cccnc21,inactive: -16.1%
15,COc1ccccc1CNC(=O)c1ccc(N2CCCC2)c(NC(=O)NCc2ccc(C)cc2)c1,inactive: -29.9%
16,COc1ccc(C2=NC(c3ccccc3)=Nc3ccc(C)cc3N2)cc1,inactive: -10.9%
17,CCc1ccc(CNC(=O)C2CCN(c3nn4cc(-c5ccc(OC)cc5)nc4s3)CC2)cc1,inactive: 0.276%
18,COC(=O)c1ccccc1NC(=O)c1ccc(CN2CC(=O)N3CCCCC3C2=O)cc1 (centres undefined),inactive: -13.7%
19,COc1ccc(NC(=O)CSc2nnc(-c3ccncc3)n2-c2ccccc2)cc1,inactive: 35.1%
20,CN1CCN(C(=O)c2ccc3c(c2)N(Cc2ccc(F)cc2)C(=O)c2ccccc2S3(=O)=O)CC1,inactive: -5.38%
21,COc1ccccc1N1CCN(CC(O)COc2ccc(Cl)c(C)c2)CC1 (centres undefined),active: 118%
